Measurements published in the supplement of paper PMC8728848.
The other results are listed elsewhere or left out.

What was measured:
Experiment in all cases: glycan array binding signal (z-score within array); higher = stronger binding
Details in all cases: glycan notation: IUPAC condensed, linker removed
GlcNAc(b1-3)Man = biological target: GlcNAc(b1-3)Man
In short: (§1)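 Columns mapping to the same glycan were averaged after glycan names were converted to IUPAC-condensed notation. The data come from 3228 arrays in the Consortium for Functional Glycomics database, limited to those with an available protein sequence. Binding is reported as a within-array Z-score averaged across arrays of one protein sequence and across linkers.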

[1] = biological target: GlcNAc(b1-3)[GlcNAc(b1-4)][GlcNAc(b1-6)]GlcNAc
In short: as §1

[2] = biological target: GlcNAc(b1-3)[GlcNAc(b1-6)]Gal(b1-4)GlcNAc
In short: as §1

[3] = biological target: GlcNAc(b1-3)[GlcNAc(b1-6)]GalNAc
In short: as §1

[4] = biological target: GlcNAc(b1-4)Gal(b1-4)GlcNAc
In short: as §1

GlcNAc(b1-4)GlcNAc = biological target: GlcNAc(b1-4)GlcNAc
In short: as §1

[5] = biological target: GlcNAc(b1-4)GlcNAc(b1-4)GlcNAc
In short: as §1

[6] = biological target: GlcNAc(b1-4)GlcNAc(b1-4)GlcNAc(b1-4)GlcNAc(b1-4)GlcNAc
In short: as §1

[7] = biological target: GlcNAc(b1-4)GlcNAc(b1-4)GlcNAc(b1-4)GlcNAc(b1-4)GlcNAc(b1-4)GlcNAc
In short: as §1

[8] = biological target: GlcNAc(b1-4)[GlcNAc(b1-6)]GalNAc
In short: as §1

[9] = biological target: GlcNAc(b1-6)Gal(b1-4)GlcNAc
In short: as §1

GlcNAc(b1-6)GalNAc = biological target: GlcNAc(b1-6)GalNAc
In short: as §1

[10] = biological target: GlcNAc6S(b1-3)Gal(b1-4)GlcNAc
In short: as §1

Kdn(a2-3)Gal(b1-3)GalNAc = biological target: Kdn(a2-3)Gal(b1-3)GalNAc
In short: as §1

Kdn(a2-3)Gal(b1-3)GlcNAc = biological target: Kdn(a2-3)Gal(b1-3)GlcNAc
In short: as §1

Kdn(a2-3)Gal(b1-4)Glc = biological target: Kdn(a2-3)Gal(b1-4)Glc
In short: as §1

Kdn(a2-3)Gal(b1-4)GlcNAc = biological target: Kdn(a2-3)Gal(b1-4)GlcNAc
In short: as §1

[11] = biological target: Kdn(a2-3)Gal(b1-4)[Fuc(a1-3)]GlcNAc
In short: as §1

Kdn(a2-6)Gal(b1-4)GlcNAc = biological target: Kdn(a2-6)Gal(b1-4)GlcNAc
In short: as §1

[12] = biological target: Man(a1-2)Man(a1-2)Man(a1-3)Man
In short: as §1

[13] = biological target: Man(a1-2)Man(a1-2)Man(a1-6)[Man(a1-3)]Man
In short: as §1

Man(a1-2)Man(a1-3)Man = biological target: Man(a1-2)Man(a1-3)Man
In short: as §1

[14] = biological target: Man(a1-2)Man(a1-3)[Man(a1-2)Man(a1-6)]Man
In short: as §1

[15] = biological target: Man(a1-2)Man(a1-3)[Man(a1-2)Man(a1-6)]Man(a1-6)[Man(a1-2)Man(a1-2)Man(a1-3)]Man
In short: as §1

[16] = biological target: Man(a1-2)Man(a1-3)[Man(a1-2)Man(a1-6)]Man(a1-6)[Man(a1-2)Man(a1-2)Man(a1-3)]Man(b1-4)GlcNAc(b1-4)GlcNAc
In short: as §1

[17] = biological target: Man(a1-2)Man(a1-3)[Man(a1-6)]Man(a1-6)[Man(a1-2)Man(a1-3)]Man(b1-4)GlcNAc(b1-4)GlcNAc
In short: as §1

[18] = biological target: Man(a1-2)Man(a1-6)[Man(a1-3)]Man(a1-6)[Man(a1-2)Man(a1-2)Man(a1-3)]Man
In short: as §1

[19] = biological target: Man(a1-2)Man(a1-6)[Man(a1-3)]Man(a1-6)[Man(a1-2)Man(a1-2)Man(a1-3)]Man(b1-4)GlcNAc(b1-4)GlcNAc
In short: as §1

Man(a1-3)[Man(a1-6)]Man = biological target: Man(a1-3)[Man(a1-6)]Man
In short: as §1

[20] = biological target: Man(a1-3)[Man(a1-6)]Man(a1-6)[Man(a1-2)Man(a1-3)]Man(b1-4)GlcNAc(b1-4)GlcNAc
In short: as §1

[21] = biological target: Man(a1-3)[Man(a1-6)]Man(a1-6)[Man(a1-3)]Man
In short: as §1

[22] = biological target: Man(a1-3)[Man(a1-6)]Man(a1-6)[Man(a1-3)]Man(b1-4)GlcNAc(b1-4)GlcNAc
In short: as §1

[23] = biological target: Man(a1-3)[Man(a1-6)]Man(b1-4)GlcNAc(b1-4)GlcNAc
In short: as §1

[24] = biological target: Man(a1-3)[Man(a1-6)]Man(b1-4)GlcNAc(b1-4)[Fuc(a1-6)]GlcNAc
In short: as §1

Man(a1-6)Man = biological target: Man(a1-6)Man
In short: as §1

Man(b1-4)GlcNAc = biological target: Man(b1-4)GlcNAc
In short: as §1

MurNAc(b1-4)GlcNAc = biological target: MurNAc(b1-4)GlcNAc
In short: as §1

Neu5Ac(a2-3)Gal = biological target: Neu5Ac(a2-3)Gal
In short: as §1

B1: PX9961H-bth-557-24-557 (Bacteroides thetaiotaomicron) (protein)
chain: EETRTEVEKKNYMNNAEEAKDVLLGVYRTNTLDAMYGYYLSILFNLGTDISQVEGSGNENFRIIPTNSFPTTQSEVQQTWAALYTGIYRANDFLERISNKIGSYTTTDKKLATLYIAEARALRGMFYFELVRRFGNVVLMTSTQMSNQNPATYVQSAPEKVYEYIEDDLLYACDILPYATDDQYRESNDYRFSKGAALGLLTKVYATWAGYPVKDESKWEAAAKTARILVESGKHGLLKDYEQLWKNTCNGTWDPTESLIEISFYSPTVSGNSDPVGRIGKWNGVKTTAIAGVRGSCAANVKVVHTFVLDWREDVSDIRRDLSIANYQYTDTKKSLWVAGASDTDESAAEKDADPTKAQKNKQNYTPAKWDIQKYVTTNSFINNDKSNVNWYFLRYADVLLLYAEALNEWKHGPDAEAYNAINAVRRRGYGNPSNTSACDLPQGLDETSFREAVRKERSYELSFEGHRRQDLIRWGIYYKTVQATAKELGYWWEGTGSPNYSVATYTEEGKHELFPIPQRDMDLCIQFNQNPKW
glycan array binding signal (z-score) (GlcNAc(b1-3)Man): -0.246 | glycan array binding signal (z-score) [1]: 0.037 | glycan array binding signal (z-score) [2]: -0.13 | glycan array binding signal (z-score) [3]: -0.236 | glycan array binding signal (z-score) [4]: -0.555 | glycan array binding signal (z-score) (GlcNAc(b1-4)GlcNAc): -0.446 | glycan array binding signal (z-score) [5]: -0.33 | glycan array binding signal (z-score) [6]: -0.163 | glycan array binding signal (z-score) [7]: -0.027 | glycan array binding signal (z-score) [8]: -0.305 | glycan array binding signal (z-score) [9]: -0.133 | glycan array binding signal (z-score) (GlcNAc(b1-6)GalNAc): 0.185 | glycan array binding signal (z-score) [10]: -0.178 | glycan array binding signal (z-score) (Kdn(a2-3)Gal(b1-3)GalNAc): -0.355 | glycan array binding signal (z-score) (Kdn(a2-3)Gal(b1-3)GlcNAc): -0.196 | glycan array binding signal (z-score) (Kdn(a2-3)Gal(b1-4)Glc): -0.397 | glycan array binding signal (z-score) (Kdn(a2-3)Gal(b1-4)GlcNAc): -0.36 | glycan array binding signal (z-score) [11]: -0.131 | glycan array binding signal (z-score) (Kdn(a2-6)Gal(b1-4)GlcNAc): -0.208 | glycan array binding signal (z-score) [12]: -0.559 | glycan array binding signal (z-score) [13]: 0.068 | glycan array binding signal (z-score) (Man(a1-2)Man(a1-3)Man): -0.572 | glycan array binding signal (z-score) [14]: -0.089 | glycan array binding signal (z-score) [15]: -0.558 | glycan array binding signal (z-score) [16]: -0.654 | glycan array binding signal (z-score) [17]: -0.398 | glycan array binding signal (z-score) [18]: 0.043 | glycan array binding signal (z-score) [19]: -0.356 | glycan array binding signal (z-score) (Man(a1-3)[Man(a1-6)]Man): 0.279 | glycan array binding signal (z-score) [20]: -0.539 | glycan array binding signal (z-score) [21]: 0.129 | glycan array binding signal (z-score) [22]: -0.619 | glycan array binding signal (z-score) [23]: -0.3 | glycan array binding signal (z-score) [24]: -0.454 | glycan array binding signal (z-score) (Man(a1-6)Man): -0.064 | glycan array binding signal (z-score) (Man(b1-4)GlcNAc): -0.424 | glycan array binding signal (z-score) (MurNAc(b1-4)GlcNAc): -0.515 | glycan array binding signal (z-score) (Neu5Ac(a2-3)Gal): -0.112
